# Measurements: the supplement of paper PMC3334620
# Over roughly 33,000 sequences, “E-score (-0.5 to 0.5)” has its median near -0.035; the highest 2% begin near 0.35. The list shows a part of the results.
# Biological target: T1, Pdr3 (UniProt P33200)
# T1 sequence: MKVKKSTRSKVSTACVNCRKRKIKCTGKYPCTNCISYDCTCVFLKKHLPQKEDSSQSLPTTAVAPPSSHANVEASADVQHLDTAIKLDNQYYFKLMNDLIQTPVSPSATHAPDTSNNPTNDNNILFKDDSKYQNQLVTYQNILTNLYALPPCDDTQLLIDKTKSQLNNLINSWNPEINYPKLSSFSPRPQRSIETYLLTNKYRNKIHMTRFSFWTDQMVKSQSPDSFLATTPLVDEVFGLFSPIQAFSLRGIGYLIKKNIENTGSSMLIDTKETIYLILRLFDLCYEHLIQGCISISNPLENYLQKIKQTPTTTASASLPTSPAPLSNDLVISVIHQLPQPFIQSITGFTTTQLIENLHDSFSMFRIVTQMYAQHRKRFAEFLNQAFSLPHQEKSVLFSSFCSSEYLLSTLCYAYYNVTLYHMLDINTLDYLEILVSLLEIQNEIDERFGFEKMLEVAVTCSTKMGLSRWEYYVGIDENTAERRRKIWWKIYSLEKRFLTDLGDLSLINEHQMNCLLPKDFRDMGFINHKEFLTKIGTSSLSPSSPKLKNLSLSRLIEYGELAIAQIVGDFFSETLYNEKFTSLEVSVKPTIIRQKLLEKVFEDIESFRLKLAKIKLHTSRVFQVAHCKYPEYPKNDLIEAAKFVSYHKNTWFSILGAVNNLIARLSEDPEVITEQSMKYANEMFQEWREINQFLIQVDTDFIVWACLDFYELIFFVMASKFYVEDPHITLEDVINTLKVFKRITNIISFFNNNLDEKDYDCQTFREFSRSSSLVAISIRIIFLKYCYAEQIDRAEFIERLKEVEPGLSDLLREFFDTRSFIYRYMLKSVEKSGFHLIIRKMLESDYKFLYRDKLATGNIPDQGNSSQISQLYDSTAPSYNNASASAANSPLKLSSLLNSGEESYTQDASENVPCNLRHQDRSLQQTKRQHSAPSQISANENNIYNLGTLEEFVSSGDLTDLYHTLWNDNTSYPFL
# Test: PBM E-score (8-mer binding enrichment) (E-score (-0.5 to 0.5)); higher = stronger / more preferred TF binding; most listed sequences are background and not binding sites
# Settings: protein concentration: 200 nM; construct: GST-full length
# In short: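 Universal all-10-mer Agilent arrays, double-stranded by primer extension on fresh or once-stripped slides, were probed with about 100-200 nM GST-tagged yeast transcription factors made by PURExpress. Fluorescent anti-GST detected bound protein, and masliner normalised the scans. E-scores from the Universal PBM Analysis Suite were given to each ungapped eight-base word pooled with its reverse complement.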
row,Sequence,PBM E-score
1,CAAGATCC,0.114
2,GAGAACTA,-0.163
3,CACCCAAG,-0.071
4,TCATAGCA,-0.223
5,CCGACGAG,0.169
6,CGGGGCAG,0.224
7,CTTGAATC,-0.17
8,CTGGAGGA,-0.248
9,AACCTAGG,0.0108
10,GCCGGGAA,0.304
11,AAACGACG,0.0464
12,CAGCATCC,0.0985
13,CCGAGGGC,0.298
14,GATCCTGA,0.0865
15,TACCCCCA,-0.269
16,AGCCTTAC,-0.374
17,CGTGCTGA,0.00926
18,ACCGGTCC,0.244
19,AGCAGACC,-0.132
20,AAGTCGTG,-0.117
21,GACTAACA,0.00927
22,CCTCTGTA,-0.249
23,GAGGTAGC,-0.0805
24,ACAAAACG,0.236
25,AATAGTGT,0.204

row,Sequence,PBM E-score
1,CGGTCACA,0.0266
2,CCTATGCC,-0.11
3,CACGGCCA,0.0585
4,TGCGGTAA,0.0177
5,GGAGGGGA,0.041
6,GCCAACAA,-0.189
7,CCAGCAAG,-0.171
8,CATTCGGG,0.266
9,AGCAAGTG,-0.203
10,ACTAGCTC,-0.0778
11,CCGTCTCA,0.042
12,GCGCGTCA,-0.0218
13,AATTTATA,0.0667
14,CATGAAGG,0.0341
15,ATTGGAGG,-0.103
16,CCGTCGCA,0.297
17,CAATACGG,0.0848
18,AAGGCCTT,-0.289
19,CGACTACC,-0.188
20,ATGCGACC,0.281
21,GCATCCAA,-0.132
22,CTTGTTAC,-0.0306
23,ATGGTTAA,-0.22
24,CATCTTAG,-0.116
25,GTTTACCA,-0.134

row,Sequence,PBM E-score
1,ATCGATAG,-0.138
2,ACTCCTGC,-0.0523
3,AAGCAGAG,-0.193
4,ATCTCGGG,0.278
5,GCAGACCA,-0.132
6,ACGCGACA,0.0983
7,GCACTTTA,-0.0932
8,ACGCGACT,-0.127
9,GCGTGGTA,-0.0288
10,ACGAGGAA,0.133
11,ATCACCTC,0.0188
12,GTAGGGGA,-0.0268
13,ATGCCAAT,-0.0512
14,AGCGTCCC,0.0713
15,GAATAAAC,0.0441
16,AAGGGCAT,-0.225
17,AGTCCGAT,0.225
18,AATCACAA,-0.159
19,GTCTCAAC,-0.0293
20,ACTGGTCA,0.0716
21,GATTATAA,0.171
22,AGCGGTAC,-0.0325
23,AAAGGATA,-0.0682
24,ATTGAGAG,0.0426
25,GCAGAGAA,-0.0205

row,Sequence,PBM E-score
1,GCCGGTCC,0.285
2,CGGCTCAC,0.12
3,CCGGGGAA,0.356
4,CGCGAGCC,0.124
5,AATGGAAA,0.103
6,CAGTAGGG,-0.191
7,ATAGTCGG,0.111
8,GGCGCGGA,0.352
9,ACGTCCCC,-0.0744
10,AGTGTGAC,-0.336
11,ATCCTAGA,-0.0578
12,AGGGTACG,-0.139
13,ACAGTAGA,-0.155
14,CAGTACAG,-0.134
15,AATCCCCT,-0.031
16,AATTAGTC,0.0765
17,GCCCAACA,-0.179
18,CAGGCTTC,0.0398
19,CAGTGCGA,-0.0825
20,CCGAAGCC,0.245
21,AGCTGATG,0.119
22,CCGGACTC,0.363
23,CACGGTTA,0.149
24,CCATAGAA,-0.0721
25,CAAATTCC,0.19

row,Sequence,PBM E-score
1,CAAAGGGA,-0.272
2,TGCGTTAA,-0.159
3,ACGGCGGA,0.314
4,AGTACCAA,0.0394
5,CCGGGCCC,0.345
6,AGCACGTC,0.0205
7,ATACACAC,-0.183
8,AGTCGTGG,-0.293
9,GAACAAAC,0.214
10,AACATCAC,-0.204
11,GGAATCGA,0.229
12,GTATCACA,-0.0329
13,TTACAGAA,-0.32
14,GTAGAAAA,-0.141
15,TGATCTAA,-0.0316
16,AGGCTTCC,0.159
17,CCCGTGAA,0.0247
18,GAATCGCC,0.0259
19,TTGGTAAA,-0.255
20,CGGATGTA,0.256
21,AGGAGGCA,-0.127
22,CTTGACTC,-0.133
23,GCTGTGGA,0.0315
24,ACAGACGG,-0.00171
25,AAATGGCC,-0.0932

row,Sequence,PBM E-score
1,ACTTACGG,0.166
2,ATGAGGCC,0.00617
3,AGCCGATA,0.0109
4,GGTCTGAA,0.0448
5,ACATTGCG,0.0294
6,AACACCCA,-0.0239
7,GCGCTGTA,-0.048
8,GCACGAAA,-0.00181
9,ATTCGTGA,-0.175
10,GAGTGCCA,-0.181
11,ATAGAGAT,-0.124
12,GCAGCCGA,0.166
13,ATCATATC,0.145
14,GACAATGA,-0.141
15,GCCAAGTA,-0.29
16,CGCTACTA,0.0942
17,TGCTGACA,-0.201
18,CGCAAAAA,0.0978
19,CAAGAATC,-0.0515
20,ATCAACGA,0.0802
21,CAGGACAC,-0.0576
22,TATAATCA,0.0514
23,AACAACCG,0.113
24,AAATATAT,0.19
25,CGGGTTCA,0.304

row,Sequence,PBM E-score
1,CATATAAC,0.049
2,ACCCCACT,0.106
3,ACAGTATG,0.0747
4,AGTCCACA,-0.239
5,CACTTCCA,-0.0319
6,AGCGCCTC,0.0308
7,AAAGCAAC,-0.0277
8,AACAGTCG,-0.0572
9,GGGGATAA,0.0548
10,CCCTTCGC,-0.0816
11,ACTCCGGG,0.369
12,TCTAGCCA,-0.128
13,AAATGTAT,0.15
14,GGTCTTCA,-0.198
15,CAAGCCGA,0.148
16,AACATTAT,0.0788
17,CAGATGTA,-0.2
18,AAGCACAG,-0.0267
19,CGCATAGA,0.0297
20,AAACGCTT,-0.218
21,TCTTAACA,-0.237
22,CACTTGAA,-0.13
